In the supplement of paper PMC8285479:
Counter-ions that a name gives are not always drawn. ± gives the standard deviation of the averaged measurements. Over roughly 1,900 compounds, “normalised cell viability (NPI; 0 = phenylarsine oxide control, 1 = DMSO control)” has its median near 1; the lowest 2% begin near 0.039. The list shows a part of the results.

System: NCI-H1944
Assay: normalised cell viability (NPI; 0 = phenylarsine oxide control, 1 = DMSO control) (fraction of DMSO control); NCI-H1944 is a non-small cell lung cancer line; higher = more viable cells (less compound toxicity)
Settings: 6 days
[1] = glucocorticoid arm: hydrocortisone 2.75 uM co-treatment, compound 1 µM
[2] = glucocorticoid arm: hydrocortisone 2.75 uM co-treatment, compound 5 µM
[3] = glucocorticoid arm: hydrocortisone 2.75 uM pre-treated 2 days and continued, compound 1 µM
[4] = glucocorticoid arm: hydrocortisone 2.75 uM pre-treated 2 days and continued, compound 5 µM
[5] = glucocorticoid arm: vehicle, compound 1 µM
[6] = glucocorticoid arm: vehicle, compound 5 µM
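Further: CTB read-out in 384-well plates, mean of triplicate wells, normalised per plate against 1 µM phenylarsine oxide and 0.1% DMSO, compounds added 24 h after seeding.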

Structure (SMILES)	normalised cell viability [1]	normalised cell viability [2]	normalised cell viability [3]	normalised cell viability [4]	normalised cell viability [5]	normalised cell viability [6]
CN1CCN(C(c2ccccc2)c2ccccc2)CC1 [Cyclizine 2HCl]	1.027 ± 0.0058	0.987 ± 0.012	1.03 ± 0.021	0.987 ± 0.038	1	0.9917 ± 0.0061
Cc1ccc(F)c(NC(=O)Nc2ccc(-c3cccc4[nH]nc(N)c34)cc2)c1 [Linifanib (ABT-869)]	1.02 ± 0.011	0.995 ± 0.015	1.033 ± 0.0058	1.01 ± 0.02	1.003 ± 0.0058	0.9947 ± 0.0021
CNC[C@H](O)c1ccc(O)c(O)c1 (racemic) [(±)-Epinephrine hydrochloride]	1.01 ± 0.013	0.996 ± 0.026	1.02 ± 0.015	0.9983 ± 0.0015	1.02	1.01 ± 0.01
CNC[C@H](O)c1ccc(O)c(O)c1 [Epinephrine HCl]	1.02 ± 0.011	1.02 ± 0.015	1.017 ± 0.0058	1.017 ± 0.0058	1.003 ± 0.0058	0.993 ± 0.011
CNC[C@H](O)c1ccc(O)c(O)c1 [(-)-Epinephrine (+)-bitartrate]	0.9933 ± 0.0091	0.967 ± 0.015	0.9977 ± 0.004	0.952 ± 0.015	0.9767 ± 0.0025	0.9777 ± 0.0025
CNC[C@H](O)c1ccc(O)c(O)c1 [Epinephrine Bitartrate]	1 ± 0.0084	0.973 ± 0.012	1 ± 0.011	1.002 ± 0.0076	0.989 ± 0.011	1 ± 0.013
C=CC(=O)Nc1cc2c(Nc3ccc(F)c(Cl)c3)ncnc2cc1OCCCN1CCOCC1 [CI-1033 (Canertinib)]	0.961 ± 0.021	0.847 ± 0.019	0.955 ± 0.022	0.905 ± 0.042	0.923 ± 0.013	0.743 ± 0.032
O=C(NCc1ccccc1)c1csc(Nc2ccncn2)n1 [Thiazovivin]	0.9927 ± 0.0067	1.07 ± 0.01	0.992 ± 0.014	1.06 ± 0.02	0.9837 ± 0.0029	0.91 ± 0.027
CNCc1ccc(-c2cc(-c3nc(-c4ccc(S(=O)(=O)C(C)C)cc4)cnc3N)on2)cc1	0.79 ± 0.021	0.363 ± 0.044	0.986 ± 0.027	0.864 ± 0.093	0.143 ± 0.042	0.052 ± 0.013
CN1CCN(CCCN2c3ccccc3Sc3ccc(C(F)(F)F)cc32)CC1 [Trifluoperazine dihydrochloride]	0.9693 ± 0.004	0.926 ± 0.012	1.02 ± 0.02	1.01 ± 0.011	1.003 ± 0.0058	0.828 ± 0.14
O=C(CCc1ccc(O)cc1)c1c(O)cc(O)cc1O [Phloretin]	0.989 ± 0.01	0.998 ± 0.013	1 ± 0.016	1.01 ± 0.014	0.989 ± 0.001	0.9767 ± 0.0076
OC(CNCC(O)C1CCc2cc(F)ccc2O1)C1CCc2cc(F)ccc2O1 (stereo unspecified) [Nebivolol]	0.977 ± 0.0099	0.937 ± 0.022	0.9677 ± 0.0042	0.958 ± 0.028	0.978 ± 0.0082	0.9757 ± 0.0046
COc1cc2nccc(Oc3ccc(NC(=O)Nc4cc(C)on4)c(Cl)c3)c2cc1OC [Tivozanib (AV-951)]	1.06 ± 0.01	1.1 ± 0.01	1.05 ± 0.021	1.07 ± 0.01	1.033 ± 0.0058	1.043 ± 0.0058
CC(C)(C#N)c1cc(Cn2cncn2)cc(C(C)(C)C#N)c1 [Anastrozole; Arimidex]	1.02 ± 0.011	1.04	1.02 ± 0.01	1.05 ± 0.01	1.005 ± 0.0081	1.01
CCCCCCCCCCCCCCC[C@H](O)[C@H](N)CO (racemic) [DL-erythro-Dihydrosphingosine]	1 ± 0.017	0.991 ± 0.017	1.01 ± 0.019	1.03 ± 0.029	0.986 ± 0.0069	0.66 ± 0.57
CN(C)CCOC(C)(c1ccccc1)c1ccccn1 (stereo unspecified) [Doxylamine succinate]	0.993 ± 0.013	0.986 ± 0.0027	0.9813 ± 0.0091	0.962 ± 0.016	0.9807 ± 0.0025	0.98 ± 0.0017
CNC(=O)c1cccc(-c2ccc3c(N4CCOC[C@@H]4C)nc(N4CCOC[C@@H]4C)nc3n2)c1	0.451 ± 0.04	0.325 ± 0.0085	0.6123 ± 0.0021	0.521 ± 0.016	0.3017 ± 0.0021	0.189 ± 0.0066
CCc1cc(Nc2nccc(-c3c(-c4ccc(OC)c(C(=O)Nc5c(F)cccc5F)c4)nc4ccccn34)n2)c(OC)cc1N1CCC(N2CCN(S(C)(=O)=O)CC2)CC1	0.95 ± 0.012	0.94 ± 0.042	0.9597 ± 0.0021	0.97 ± 0.021	1.003 ± 0.0064	0.956 ± 0.049
Nc1ccn([C@H]2CC[C@@H](CO)O2)c(=O)n1 [2',3'-dideoxycytidine]	1.01 ± 0.014	0.962 ± 0.017	1.002 ± 0.0068	0.994 ± 0.017	1.013 ± 0.0058	0.9997 ± 0.0093
CN1CCC(=C2c3ccccc3CCc3cccnc32)CC1 [Azatadine dimaleate]	1.01 ± 0.014	1.033 ± 0.0058	1.01 ± 0.016	1.04 ± 0.03	1.01 ± 0.01	1.007 ± 0.0058
Nc1nc2ccc(OC(F)(F)F)cc2s1 [Riluzole]	0.971 ± 0.018	0.981 ± 0.01	0.854 ± 0.22	1 ± 0.013	0.9727 ± 0.0015	0.976 ± 0.007
COc1ccc2c(c1)c(CC(=O)O)c(C)n2C(=O)c1ccc(Cl)cc1 [Indomethacin]	0.9967 ± 0.0029	1.01 ± 0.045	1.007 ± 0.0058	1.05 ± 0.075	0.988 ± 0.0036	0.9957 ± 0.0038
CNC(=O)c1cc(Oc2ccc(NC(=O)Nc3cc(C(C)(C)C)nn3-c3ccc4ncccc4c3)c(F)c2)ccn1 [DCC-2036 (Rebastinib)]	0.9777 ± 0.009	1.027 ± 0.0058	0.996 ± 0.013	0.961 ± 0.053	0.986 ± 0.0092	1.02 ± 0.01
O=C(O)c1cc(=O)cc(C(=O)O)[nH]1 [Chelidamic acid]	1.002 ± 0.0076	1 ± 0.019	0.997 ± 0.012	1.01 ± 0.019	0.996 ± 0.012	0.9957 ± 0.0067
CN1CCc2c(cc(O)c(O)c2Cl)C(c2cccc(Cl)c2)C1 (stereo unspecified)	1.006 ± 0.0063	1.03 ± 0.03	1.01 ± 0.039	1.017 ± 0.0058	1	1.013 ± 0.0058
C[C@]1(O)C[C@@H](c2nc(-c3ccc4ccc(-c5ccccc5)nc4c3)c3c(N)nccn32)C1 [Linsitinib (OSI-906)]	0.676 ± 0.025	0.579 ± 0.053	0.762 ± 0.013	0.714 ± 0.028	1.01 ± 0.011	1.007 ± 0.0058
